Test results reported in patent US20120237496.

Legend:
[1] = target: Angiotensin (fluorescein/Lys-biotin labelled synthetic peptide)
[2] = target: T1, GLP-1 (fluorescein/Lys-biotin labelled synthetic peptide)
T1 chain: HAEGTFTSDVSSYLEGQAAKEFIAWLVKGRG

[3] = target: T2, GIP (fluorescein/Lys-biotin labelled synthetic peptide)
T2 chain: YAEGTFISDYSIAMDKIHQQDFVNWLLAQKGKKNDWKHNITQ

[4] = target: T3, ANP (fluorescein/Lys-biotin labelled synthetic peptide)
T3 chain: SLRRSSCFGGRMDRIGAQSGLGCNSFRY

[5] = target: Bradykinin (fluorescein/Lys-biotin labelled synthetic peptide)
[6] = target: T4, Somatostatin 1-28 (fluorescein/Lys-biotin labelled synthetic peptide)
T4 chain: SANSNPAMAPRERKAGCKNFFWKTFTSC

[7] = target: Glucagon (fluorescein/Lys-biotin labelled synthetic peptide)
[8] = target: A-beta 1-40 (fluorescein/Lys-biotin labelled synthetic peptide)

B1: Wild type Nep (protein)
chain: YDDGICKSSDCIKSAARLIQNMDATTEPCTDFFKYACGGWLKRNVIPETSSRYGNFDILRDELEVVLKDVLQEPKTEDIVAVQKAKALYRSCINESAIDSRGGEPLLKLLPDIYGWPVATENWEQKYGASWTAEKAIAQLNSKYGKKVLINLFVGTDDKNSVNHVIHIDQPRLGLPSRDYYECTGIYKEACTAYVDFMISVARLIRQEERLPIDENQLALEMNKVMELEKEIANATAKPEDRNDPMLLYNKMTLAQIQNNFSLEINGKPFSWLNFTNEIMSTVNISITNEEDVVVYAPEYLTKLKPILTKYSARDLQNLMSWRFIMDLVSSLSRTYKESRNAFRKALYGTTSETATWRRCANYVNGNMENAVGRLYVEAAFAGESKHVVEDLIAQIREVFIQTLDDLTWMDAETKKRAEEKALAIKERIGYPDDIVSNDNKLNNEYLELNYKEDEYFENIIQNLKFSQSKQLKKLREKVDKDEWISGAAVVNAFYSSGRNQIVFPAGILQPPFFSAQQSNSLNYGGIGMVIGHEITHGFDDNGRNFNKDGDLVDWWTQQSASNFKEQSQCMVYQYGNFSWDLAGGQHLNGINTLGENIADNGGLGQAYRAYQNYIKKNGEEKLLPGLDLNHKQLFFLNFAQVWCGTYRPEYAVNSIKTDVHSPGNFRIIGTLQNSAEFSEAFHCRKNSYMNPEKKCRVW
Work on B1 yielded a kcat/KM [1] of 1.2e+06 M⁻¹ s⁻¹, a kcat/KM [2] of 140000 M⁻¹ s⁻¹ and a kcat/KM [3] of 460 M⁻¹ s⁻¹. It also gave a kcat/KM [4] of 290000 M⁻¹ s⁻¹, a kcat/KM [5] of 490000 M⁻¹ s⁻¹ and a kcat/KM [6] of 560000 M⁻¹ s⁻¹. For the same protein, the kcat/KM [7] was 250000 M⁻¹ s⁻¹ and the kcat/KM [8] was 13000 M⁻¹ s⁻¹.

B2: Nep-G399V/G714K (protein)
chain: YDDGICKSSDCIKSAARLIQNMDATTEPCTDFFKYACGGWLKRNVIPETSSRYGNFDILRDELEVVLKDVLQEPKTEDIVAVQKAKALYRSCINESAIDSRGGEPLLKLLPDIYGWPVATENWEQKYGASWTAEKAIAQLNSKYGKKVLINLFVGTDDKNSVNHVIHIDQPRLGLPSRDYYECTGIYKEACTAYVDFMISVARLIRQEERLPIDENQLALEMNKVMELEKEIANATAKPEDRNDPMLLYNKMTLAQIQNNFSLEINGKPFSWLNFTNEIMSTVNISITNEEDVVVYAPEYLTKLKPILTKYSARDLQNLMSWRFIMDLVSSLSRTYKESRNAFRKALYVTTSETATWRRCANYVNGNMENAVGRLYVEAAFAGESKHVVEDLIAQIREVFIQTLDDLTWMDAETKKRAEEKALAIKERIGYPDDIVSNDNKLNNEYLELNYKEDEYFENIIQNLKFSQSKQLKKLREKVDKDEWISGAAVVNAFYSSGRNQIVFPAGILQPPFFSAQQSNSLNYGGIGMVIGHEITHGFDDNGRNFNKDGDLVDWWTQQSASNFKEQSQCMVYQYGNFSWDLAGGQHLNGINTLGENIADNGGLGQAYRAYQNYIKKNGEEKLLPGLDLNHKQLFFLNFAQVWCGTYRPEYAVNSIKTDVHSPKNFRIIGTLQNSAEFSEAFHCRKNSYMNPEKKCRVW
Work on B2 yielded a kcat/KM [1] of 16000 M⁻¹ s⁻¹, a ratio of kcat/KM, mutant vs wild type [1] of 0.014 and a kcat/KM [2] of 38000 M⁻¹ s⁻¹. It also gave a ratio of kcat/KM, mutant vs wild type [2] of 0.27, a kcat/KM [3] of 160 M⁻¹ s⁻¹ and a ratio of kcat/KM, mutant vs wild type [3] of 0.34. For the same protein, the kcat/KM [4] was 26000 M⁻¹ s⁻¹, the ratio of kcat/KM, mutant vs wild type [4] was 0.088 and the kcat/KM [5] was 150 M⁻¹ s⁻¹. It also gave a ratio of kcat/KM, mutant vs wild type [5] of 0.00031, a kcat/KM [6] of 4100 M⁻¹ s⁻¹ and a ratio of kcat/KM, mutant vs wild type [6] of 0.0073. The kcat/KM [7] was 100000 M⁻¹ s⁻¹, the ratio of kcat/KM, mutant vs wild type [7] was 0.41 and the kcat/KM [8] was 59000 M⁻¹ s⁻¹. For the same protein, the ratio of kcat/KM, mutant vs wild type [8] was 4.5.
